# The other results are listed elsewhere or left out.
# Test system: HepG2
# Experiment: cytotoxicity call (relative viability < 0.9)
# Conditions: 10 µM
row,SMILES,cytotoxicity call
1,CN1C(=O)CC(C)(c2ccccc2)C1=O (stereo not given),inactive
2,COC(=O)c1ccccc1S(=O)(=O)NC(=O)Nc1nc(C)c2c(n1)CCS(=O)(=O)C2,inactive
3,C[C@@H]1CN([C@H](C)CO)C(=O)c2cc(N(C)C)ccc2O[C@@H](C)CCCCO[C@@H]1CN(C)Cc1ccc(C(=O)Nc2ccccc2N)cc1,inactive
4,C[C@H]1CN([C@@H](C)CO)S(=O)(=O)c2ccc(C#CC3CC3)cc2O[C@@H]1CN(C)C(=O)Cc1ccncc1,inactive
5,COc1ccc(S(=O)(=O)N(C)C[C@@H]2OCCCC[C@H](C)Oc3ccc(NC(=O)NC4CCCCC4)cc3C(=O)N([C@@H](C)CO)C[C@H]2C)cc1,inactive
6,C[C@@H]1CN([C@H](C)CO)C(=O)c2ccccc2-c2ccccc2CO[C@H]1CN(C)C(=O)Nc1cccc(C(F)(F)F)c1,inactive
7,C[C@@H]1CN([C@@H](C)CO)C(=O)c2cccc(NC(=O)c3ccncc3)c2O[C@H]1CN(C)Cc1ccc(C(=O)O)cc1,inactive
8,COc1cccc(S(=O)(=O)N(C)C[C@@H]2Oc3ncc(-c4cccc(C(=O)N(C)C)c4)cc3C(=O)N([C@@H](C)CO)C[C@H]2C)c1,inactive
9,COc1cccc(S(=O)(=O)N(C)C[C@H]2Oc3ncc(C#CCN(C)C)cc3C(=O)N([C@@H](C)CO)C[C@H]2C)c1,inactive
10,C[C@@H]1CCCCO[C@H](CN(C)Cc2ccc(Cl)c(Cl)c2)[C@@H](C)CN([C@H](C)CO)C(=O)c2cc(N(C)C)ccc2O1,inactive
11,COc1ccc(S(=O)(=O)N(C)C[C@H]2Oc3ccc(NS(C)(=O)=O)cc3C(=O)N([C@@H](C)CO)C[C@@H]2C)cc1,inactive
12,Cc1ccc(S(=O)(=O)Nc2ccc3c(c2)C(=O)N([C@@H](C)CO)C[C@H](C)[C@@H](CN(C)C(=O)C2CCCCC2)OCCCC[C@@H](C)O3)cc1,active
13,COc1ccc(NC(=O)Nc2ccc3c(c2)CC(=O)N([C@@H](C)CO)C[C@H](C)[C@H](CN(C)Cc2ccc(-c4ccccc4)cc2)O3)cc1,active
14,O=c1nc(C(F)(F)F)[nH]c2nc[nH]c12,inactive
15,C[C@H]1CN([C@@H](C)CO)C(=O)Cc2cc(NC(=O)Cn3cnnn3)ccc2O[C@H]1CN(C)S(=O)(=O)c1ccc(Cl)cc1,inactive
16,N#Cc1c(N)n(CCN)c2nc3ccccc3nc12,inactive
17,CO[C@H]1CN(C)C(=O)c2ccc(NC(=O)Nc3ccc(Cl)cc3)cc2OC[C@H](C)N(C(=O)Nc2c(C)noc2C)C[C@@H]1C,inactive
18,C[C@@H]1CCCCO[C@H](CN(C)Cc2ccncc2)[C@@H](C)CN([C@H](C)CO)C(=O)c2cc(NC(=O)c3ccccc3)ccc2O1,inactive
19,Cc1cc(C)c(-n2cccc2CN)c(C)c1,inactive
20,C[C@H]1CCCCO[C@@H](CN(C)C(=O)CCC(F)(F)F)[C@@H](C)CN([C@@H](C)CO)C(=O)c2cc(NC(=O)NC3CCCCC3)ccc2O1,inactive

row,SMILES,cytotoxicity call
1,C[C@H](CO)N1C[C@H](C)[C@H](CN(C)S(=O)(=O)c2cccs2)OCCCC[C@H](C)Oc2ccc(NC(=O)Nc3ccc4c(c3)OCO4)cc2C1=O,inactive
2,C[C@@H]1CN([C@H](C)CO)C(=O)c2cc(NS(=O)(=O)c3ccc(Cl)cc3)ccc2O[C@@H]1CN(C)S(C)(=O)=O,inactive
3,Nc1nc(F)nc2c1ncn2C1OC(COP(=O)(O)O)C(O)C1O (stereo not given),inactive
4,COc1cc2c3cc1Oc1cc(ccc1O)CC1c4c(cc(OC)c(O)c4Oc4ccc(cc4)CC3N(C)CC2)CC[N+]1(C)C.Cl.O.O.O.O.O.[Cl-] (stereo not given),inactive
5,CC(C)(C)OC(=O)C[C@H]1CC=CC[C@H](CC(=O)N(CCO)Cc2ccccc2)C(=O)N2CCC[C@@H]2COC1=O,inactive
6,COc1ccc(S(=O)(=O)Nc2ccc3c(c2)CC(=O)N([C@H](C)CO)C[C@H](C)[C@H](CN(C)CC2CC2)O3)cc1,inactive
7,C[C@@H]1CN([C@H](C)CO)S(=O)(=O)c2ccc(C#CC(C)(C)O)cc2O[C@@H]1CN(C)C(=O)CN(C)C,inactive
8,COc1ccc(NC(=O)N(C)C[C@H]2Oc3c(NC(=O)c4cc(C)nn4C)cccc3C(=O)N([C@H](C)CO)C[C@@H]2C)cc1,inactive
9,C[C@@H]1CN([C@H](C)CO)C(=O)CCCn2cc(nn2)CO[C@@H]1CN(C)C(=O)Nc1ccc(N2CCN(C)CC2)cc1,inactive
10,COc1ccc([C@@H]([C@H](Cc2ccccc2)OC(C)=O)N2C[C@H]3[C@@H]([C@@H](O)c4ccccc4)ON(C)[C@H]3[C@@H]2Cc2ccccc2)cc1,active
11,C[C@H]1CN([C@@H](C)CO)C(=O)c2cccc(NC(=O)c3nc4ccccc4s3)c2O[C@@H]1CN(C)S(C)(=O)=O,inactive
12,C[C@@H]1CN([C@H](C)CO)C(=O)c2c(c3ccccc3n2C)-c2ccccc2CO[C@@H]1CN(C)C(=O)Nc1ccccc1C(F)(F)F,inactive
13,Cc1ccc(S(=O)(=O)Nc2ccc3c(c2)C(=O)N([C@@H](C)CO)C[C@H](C)[C@@H](CN(C)Cc2ccncc2)OCCCC[C@H](C)O3)cc1,inactive
14,C[C@H](CO)N1C[C@H](C)[C@H](CN(C)Cc2ccc(Oc3ccccc3)cc2)OCc2ccccc2-c2ccccc2C1=O,inactive
15,CC(C)(CO)[C@@H](O)C(=O)NCCC(=O)O,inactive
16,C[C@@H]1CN([C@H](C)CO)C(=O)c2ccccc2-c2ccccc2CO[C@H]1CN(C)C(=O)Nc1ccc(-c2ccccc2)cc1,active
17,C[C@@H]1CN([C@@H](C)CO)C(=O)c2cc(NS(=O)(=O)c3cccs3)ccc2O[C@@H](C)CCCCO[C@@H]1CN(C)Cc1ccccc1,inactive
18,Cc1ccc(S(=O)(=O)Nc2ccc3c(c2)C(=O)N([C@H](C)CO)C[C@@H](C)[C@@H](CN(C)S(=O)(=O)c2ccc(C)cc2)OCCCC[C@H](C)O3)cc1,inactive
19,CO[C@@H]1CN(C)C(=O)c2cc(NS(C)(=O)=O)ccc2OC[C@H](C)N(C(=O)CN(C)C)C[C@@H]1C,inactive
20,C[C@H](C(=O)N(C)C[C@H]1OCc2ccccc2-c2c(n(C)c3ccccc23)C(=O)N([C@H](C)CO)C[C@@H]1C)c1ccccc1,inactive

# Source: the antibiotic and cytotoxicity screens of Wong et al. (2023)
